PubChem BioAssay AID686979 (National Center for Advancing Translational Sciences (NCATS), 2013)
Screen size: about 420,000 compounds; about 50,000 (12%) were called active. This list was built around the results that the source calls inconclusive (neither active nor inactive); the mix of calls is not that of the screen. Calls follow the shape of the dose curve; as a rule, active = well fitted inhibition curve with a large enough effect; inconclusive = small, poorly fitted or top-dose-only effect; inactive = flat fitted curve, though single readings scatter. No potency is given beside an inconclusive call; the fits are too rough.

assay: qHTS for Inhibitors of human tyrosyl-DNA phosphodiesterase 1 (TDP1): qHTS in cells in presence of CPT; conditions: chicken DT40 Tdp1-/-;hTDP1 cells + 20 nM CPT, ATP luminescence, 48 h; activity change, negative = growth inhibition: at 46.2 µM (top of the series) unless noted; also: nearly all actives have a fitted effect of over 55% in size
Summary of the method: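 Chicken DT40 Tdp1-/- cells complemented with human TDP1, 400 cells/well, exposed to compounds plus 20 nM camptothecin for at least 48 h at 37 C; viability read as ATP content by CellTiter-Glo luminescence.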
% is scaled to controls: 0 for no effect and ±100 for the full control effect; potency is read from the fitted curve at half-maximal effect; tags tell the direction and shape of the fitted curve.

Row | Compound | Potency | activity change, negative = growth inhibition
1 | C=CCNC(=O)c1ccc2c3n(nc2c1)-c1ccccc1CO3 | active: 14.6 µM | –
2 | CC(C)CNC(=O)c1cnn2c(C(F)(F)F)cc(C(F)(F)F)nc12 | inactive | –
3 | COc1cccc(-c2csc(N3CCN(C(=O)Nc4ccc(Cl)cc4)CC3)n2)c1 | inconclusive [inhibitor, single point] | –
4 | CC1=C(C(=O)N(C(C)C)C(C)C)CC(CC(=O)NCCCN(C)C)C(=O)N1Cc1ccccc1 (centres undefined) | inactive | –
5 | Cn1nccc1NC(=O)COCC(=O)O | inactive | –
6 | COC(=O)c1c(N)sc(Cc2ccccc2)c1C | inactive | –
7 | COc1cc(O)c(C(CCN2CCOCC2)c2ccc3c(c2)OCO3)c(OC)c1 (centres undefined) | inconclusive [inhibitor, single point] | –
8 | O=c1[nH]c2ccc(Cl)cc2c(-c2ccccc2)c1N1CCOCC1 | inactive | –
9 | Cn1c(CCc2ccc(N)cc2)nc2ccccc21 | inconclusive [inhibitor, single point] | –
10 | CC1=C(C(=O)Nc2cc(C(=O)N3CCN(c4ccc(Cl)cc4)CC3)ccc2C)SCCO1 | active: 18.4 µM | –
11 | COc1cccc(C(O)c2ncc(-c3ccccc3OC)[nH]2)c1 (centres undefined) | inactive | –
12 | Cn1nc(C(=O)NCc2ccccc2CN2CCCC2)c2ccccc2c1=O | inconclusive [inhibitor, partial curve, poor fit] | –
13 | COc1ccc(Nc2nc(N3CCCCC3)c3ccccc3n2)cc1 | active: 18.4 µM | –
14 | COc1ccc(-n2nc(C(=O)NCC(=O)N3CCN(c4ccccc4F)CC3)c3ccccc3c2=O)cc1OC | inconclusive [inhibitor, partial curve] | –
15 | O=C(c1cccc(F)c1)N1CCC2(CC1)CCN(c1ncccn1)CC2 | inconclusive [inhibitor, single point] | –
16 | C=CCN1C=C2C(=O)C(C)(OC(=O)c3ccc(OC)cc3)C(=O)C(c3ccco3)=C2C=C1CCCC (centres undefined) | active: 13 µM | –
17 | CCOc1ccc(OC(=O)c2c(-c3ccccc3Cl)noc2C)cc1 | inconclusive [inhibitor, single point] | –
18 | CCN(C(=O)C1CCCN(c2ncnc3c2nc2n3CCCCC2)C1)c1cccc(C)c1 (centres undefined) | active: 11.6 µM | –
19 | COc1ccc(-c2cc(C(=O)NCc3ccco3)c3ccccc3n2)cc1OC | inconclusive [inhibitor, single point] | –
20 | C=CCOC(=O)C1=C(C)NC(SCC(=O)OCC)=C(C#N)C1c1ccc(C)cc1 (centres undefined) | inactive | –
21 | NC1=NC[C@H](Cc2ccc(O)cc2)N1CC1CCCCC1 | inconclusive [inhibitor, single point] | –
22 | c1nc2sc3c(c2c2nnnn12)CCC3 | inactive | –
23 | O=C(CCCc1c[nH]c2ccccc12)N1CCN(c2ccc(N3CCOCC3)nn2)CC1 | inconclusive [inhibitor, single point] | –
24 | CCN(CC)C(=O)C1CCCN(Cc2ccccc2C(F)(F)F)C1 (centres undefined) | inconclusive [inhibitor, single point] | –
25 | O=[N+]([O-])c1ccc(Oc2cccc(Br)c2)c2ccncc12 | inconclusive [inhibitor, single point] | –

Row | Compound | Potency | activity change, negative = growth inhibition
26 | COc1ccc(OC)c(NC(=O)Nc2cccc(Cn3cccn3)c2)c1 | inactive | –
27 | CCOCCN(C(=O)c1ccccc1Cl)c1cccc(C)c1C | active: 25.9 µM | –
28 | CCN(CC)S(=O)(=O)c1ccc2oc(C(=O)Nc3cc(C)ccc3OC)c(C)c2c1 | inconclusive [inhibitor, partial curve] | –
29 | CCOc1cccc(-c2nnc3sc(COc4ccc(OC)cc4)nn23)c1 | inconclusive [inhibitor, single point] | –
30 | CCc1cc2c(cc3c(=O)n(CC(=O)NCc4cc(Br)ccc4OC)ncn32)s1 | inactive | –
31 | Cc1cccc(C(=O)Nc2nnc(-c3ccco3)o2)c1 | active: 23.1 µM | –
32 | CCOc1ccc(S(=O)(=O)N2CCOCC2)cc1NC(=O)Cc1c(F)cccc1Cl | inconclusive [inhibitor, partial curve] | –
33 | COCCNc1cc(C)nc2cc(-c3ccc(C)cc3)nn12 | inactive | –
34 | Cc1nn(-c2ccccc2Cl)c(Cl)c1/C=N/Nc1nc2ccccc2s1 | inconclusive [inhibitor, partial curve] | –
35 | NS(=O)(=O)c1ccc(Nc2nc(-c3ccccc3)cs2)cc1 | inactive | –
36 | CCCCCCCCN1C(=O)[C@H](CC(=O)NCc2cccs2)C[C@@]2(C(=O)OC)CCCCC=C12 | active: 16.4 µM | –
37 | COC(=O)CC1=NN(c2ccccc2)C(=O)/C1=C\c1ccc(OC)cc1 | active: 20.6 µM | –
38 | CN(Cc1c(C(=O)N/N=C/c2ccc(O)cc2)nnn1-c1nonc1N)c1ccccc1 | inactive | –
39 | COc1ccc(-c2cc(=O)oc3c(C)c(OCC(=O)Nc4cccnc4)ccc23)cc1 | inconclusive [inhibitor, partial curve] | –
40 | Cc1ccc(CSc2nnc(-c3ccc(S(=O)(=O)N4CCCC4)cc3)o2)cc1 | – | inconclusive: -32.8% [inhibitor]
41 | CCOCCCNC(=O)COC(=O)/C=C/c1ccc(S(=O)(=O)N2CCc3ccccc32)cc1 | inactive | –
42 | O=C(C[n+]1cccc2cc(Cl)ccc21)c1ccc(Br)cc1 | inconclusive [inhibitor, single point] | –
43 | C=C1CCC[C@]2(C)C[C@H]3OC(=O)C(CNC(C)(CO)CO)[C@H]3CC12 (some centres undefined) | inconclusive [inhibitor, single point] | –
44 | CC1CCCN(CC(=O)N2c3ccccc3Sc3ccccc32)C1 (centres undefined) | inconclusive [inhibitor, single point] | –
45 | O=C(COC(=O)c1c2c(nc3ccccc13)/C(=C/c1ccco1)CC2)NC1CCCC1 | active: 16.4 µM | –
46 | CCOC(=O)C1=C(C)C(c2ccccc2O)NC(=O)N1 (centres undefined) | inactive | –
47 | CCc1ccccc1NC(=O)c1cc2sccc2n1C | – | inconclusive: -34.3% [inhibitor]
48 | Cc1cccc(CNC(=O)C2CCC(=O)N(CCc3cccc(F)c3)C2)n1 (centres undefined) | inactive | –
49 | Cn1c(=O)oc2cc(S(=O)(=O)N3CCCC(C(=O)NCc4cccs4)C3)ccc21 (centres undefined) | inconclusive [inhibitor, single point] | –
